From the supplement of paper PMC10338343
± gives the standard deviation. The entries are a selection whose mix differs from that of the whole data set.

Tested on: MIWI (PIWIL1) piRISC loaded with piRNA #1 (30 nt)
Test: pre-steady-state target cleavage rate (min^-1); MIWI and MILI are mouse PIWI proteins and EfPiwi is from a freshwater sponge; tags in brackets are library labels; higher = faster piRNA-guided slicing of the target
Conditions: guide: piRNA #1 5'p-UGAGGUAGUAGGUUGUAUAGUAUCCAGAGG; auxiliary factor: 500 nM mouse GTSF1
Method in brief: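 The pre-steady-state cleavage rate was calculated from a burst-and-steady-state fit. Data came from Cleave-'n-Seq, in which […] transcribed, DNA-blocked target RNA library was mixed with 1 nM active affinity-purified piRISC carrying one synthetic guide, with or without 500 nM GTSF1 partner protein, in HEPES–potassium acetate buffer at 33 °C for 0–8 or 0–960 min. Uncleaved targets were sequenced and normalised to depth and to weakly complementary targets, three trials were pooled, and k3 was capped at 0.0001 min^-1.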
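Also: 1 nM active piRISC with 0.1 nM target library at 33 °C single turnover.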

Sequence	pre-steady-state target cleavage rate
GCACUGGAUACUAUACAACCUUCUACCUCA	0.829 ± 0.039
GGAGACGAUACUAUACUACCUACUACCACA	1.22 ± 0.079
GGAGACCUAACUAUAGAACCUACUACGUCA	0.252 ± 0.049
GGAGACCUAACUAUACAACCUACUAGGAGA [g6:g21:cont:t1A]	0.0453 ± 0.015
GGAGACCUUACUAUACAACUUACUACCUCA	0.504 ± 0.029
GGAGAGGAUACUAUACAACCACUACCUCA	0.00665 ± 0.0025
GGAGACCUUUCUAUACAUCCUACUACCUCA	0.332 ± 0.029
GGAGACGAAAGUAUACAACCUACUACCUCA	0.527 ± 0.062
GCUCUGGAAAGUAUACAACCUACUACCUCA	1.59 ± 0.085
GGAGACCUAUGUAAUACAACCUACUACCUCA	0.00453 ± 0.0039
CCUCUGGGAUACUAUACAACCUACUACCUCA	1.9 ± 0.1
GGAGACGUUAGUAUACAACCUACUACCUCA	0.549 ± 0.049
GGACUGGAUAUAUACAACCUACUACCUCA	1.43 ± 0.12
GGACUGGAUACUAUACUACGUACUACCUCA	0.365 ± 0.055
GGAGACCAUAGUUUACAACCUACUACCUCA	0.186 ± 0.039
CCUGUGGAUACUAUACAACCUACUAGCUCA	0.183 ± 0.049
GGAGUGGAUACUAAACAACCUACUACCUGA	0.364 ± 0.063
GGAGACCUAUCUAUACAUCCAACUACCUCA	0.00717 ± 0.0022
GGAGUGGAUACUAUUCAACCUACUACGUCA	0.34 ± 0.038
GCUCUGGAUACUAUACACCUACUACCUCA	0.291 ± 0.032

Sequence	pre-steady-state target cleavage rate
GGAGACCUUACUAUACAACCUACUAUCCUCA	1.16 ± 0.077
GGAGACCUAUGUAUACAACCUAGUACGUCA	0.0105 ± 0.0022
GCUCUGGAUAGUAUACAACCUACUUCCUCA	0.527 ± 0.043
GCUCUGCAUACUAUACAACCUAGUACCUCA	0.689 ± 0.11
GGAGACGAUACUAUACAAUCUACUACCUCA	0.409 ± 0.024
CCUCUGGUUAGUAUACAACCUACUACCUCA	0.121 ± 0.026
GGACUGGAUACUAUACAUGCUACUACCUCA	0.716 ± 0.061
GGAGACCAUACAAUACAACCUACUUCCUCA	0.277 ± 0.05
CCUCUGGAUACUAAACAAGCUACUACCUCA	1.4 ± 0.077
GGUCUGGAUACUAUACAACCUACUACAUCA	0.527 ± 0.043
CGUCUGGAUUCUAUACAACCUACUACCUCA	1.82 ± 0.11
GGACUGGAUACAAUACAAGCUACUACCUCA	0.683 ± 0.041
GGAGACCUAUGAUAUCUACCUACUUCCUCA	< 0.0001
GGAGACCUUACUAUACAACCUAGAACCUCA	0.0844 ± 0.017
GGAGACCUAUCUAUACUACCUAGUACCUCA	0.00962 ± 0.002
GGACUGGAUACGUAUACAACCUACUACCUCA	1.4 ± 0.11
GGAGACCUAUCUUAUACAACCUACUACCUCA	0.485 ± 0.066
GGAGAGGAUACUAUACAACCUACUAUCCUCA	0.152 ± 0.028
GGAGACCUAUGUAUACAAGCUACUACCUGA	0.0211 ± 0.0044
GGAGAGGAUUCUAUACUACCUACUACCUCA	1.13 ± 0.09
